Measurements taken from article PMC4336329 (PLoS ONE, 2015).
Hit rate of the full screen: of about 310,000 compounds, about 2,200 (0.71%) showed an effect of 50% or more. The effect is printed as a negative number. The list shows a part of the results.

What follows are molecules tested against human ether-à-go-go-related gene (hERG) potassium channel (human, UniProt Q12809) (assay: primary screen, population patch clamp on CHO cells stably expressing hERG).
Chain of human ether-à-go-go-related gene (hERG) potassium channel (Q12809 whole entry, looked up): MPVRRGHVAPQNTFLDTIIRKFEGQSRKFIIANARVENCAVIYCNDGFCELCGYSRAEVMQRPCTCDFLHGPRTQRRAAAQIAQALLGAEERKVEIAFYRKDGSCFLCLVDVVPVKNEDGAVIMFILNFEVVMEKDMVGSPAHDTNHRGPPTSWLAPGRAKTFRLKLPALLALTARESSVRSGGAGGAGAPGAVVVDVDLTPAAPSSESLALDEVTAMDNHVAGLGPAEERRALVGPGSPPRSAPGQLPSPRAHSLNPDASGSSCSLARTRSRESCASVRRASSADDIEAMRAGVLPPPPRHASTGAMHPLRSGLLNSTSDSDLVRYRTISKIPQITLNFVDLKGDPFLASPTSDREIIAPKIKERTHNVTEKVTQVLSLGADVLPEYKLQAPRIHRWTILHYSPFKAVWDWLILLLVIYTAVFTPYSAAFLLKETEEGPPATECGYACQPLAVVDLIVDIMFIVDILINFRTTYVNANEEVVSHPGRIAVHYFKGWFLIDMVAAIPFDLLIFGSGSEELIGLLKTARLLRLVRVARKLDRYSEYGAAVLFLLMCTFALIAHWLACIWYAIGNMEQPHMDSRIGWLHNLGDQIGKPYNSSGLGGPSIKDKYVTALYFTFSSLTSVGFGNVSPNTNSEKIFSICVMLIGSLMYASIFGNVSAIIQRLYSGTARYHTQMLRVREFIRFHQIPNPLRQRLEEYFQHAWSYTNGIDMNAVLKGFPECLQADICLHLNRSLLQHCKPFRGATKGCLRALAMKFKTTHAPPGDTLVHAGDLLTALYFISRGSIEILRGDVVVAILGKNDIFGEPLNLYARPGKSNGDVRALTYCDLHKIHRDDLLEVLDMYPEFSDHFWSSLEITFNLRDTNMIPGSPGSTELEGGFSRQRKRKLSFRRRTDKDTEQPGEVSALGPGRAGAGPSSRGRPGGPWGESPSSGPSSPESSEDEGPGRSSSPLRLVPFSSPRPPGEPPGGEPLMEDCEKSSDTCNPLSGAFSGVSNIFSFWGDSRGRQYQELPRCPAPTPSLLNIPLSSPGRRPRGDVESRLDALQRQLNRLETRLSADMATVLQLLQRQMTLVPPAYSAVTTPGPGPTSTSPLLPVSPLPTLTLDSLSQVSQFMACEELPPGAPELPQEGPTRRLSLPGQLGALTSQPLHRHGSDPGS
With O=C(NCc1ccccn1)C(=O)Nc1nc(C23CC4CC(CC(C4)C2)C3)cs1 the “hERG current change (%, negative = inhibition) at 1uM” value was 6.89%. CCn1cc(Br)c(C(=O)Nc2sc3c(c2C(N)=O)CCCC3)n1 was tested, and the “hERG current change (%, negative = inhibition) at 1uM” value was -6.66%. With CCOC(=O)N1CCN(CC(O)COc2ccccc2[N+](=O)[O-])CC1.Cl (stereo not drawn) the “hERG current change (%, negative = inhibition) at 1uM” value was 11.7%. In the case of COCCn1c(=NC(=O)c2ccccc2[N+](=O)[O-])sc2cc(S(C)(=O)=O)ccc21, the “hERG current change (%, negative = inhibition) at 1uM” value is reported as 9.08%. With COc1cc(=O)n(C)c2ccccc12 the “hERG current change (%, negative = inhibition) at 1uM” value was 8.88%. For Cc1cc(N2CCCCC2)nc(-c2ccc(Br)cc2)n1, the “hERG current change (%, negative = inhibition) at 1uM” value was 5.1%. With Cc1ccc(C(=O)c2coc3c2C(=O)C(=O)c2ccccc2-3)cc1 the “hERG current change (%, negative = inhibition) at 1uM” value was 10%. O=C(Nc1cc([N+](=O)[O-])ccc1O)c1cccc(NC(=O)c2ccco2)c1 was tested, and the “hERG current change (%, negative = inhibition) at 1uM” value was 17.2%. With CC(C)(C)N1CC(C(=O)Nc2ccc(C#N)cc2)CC1=O (stereo not drawn) the “hERG current change (%, negative = inhibition) at 1uM” value was 8.42%. In the case of Cc1ccc(NC(=O)CN2CCN(C(=O)c3ccco3)CC2)cc1, the “hERG current change (%, negative = inhibition) at 1uM” value is reported as -1.3%. With O=C(NCc1ccccn1)Nc1cc(Cl)ccc1Cl the “hERG current change (%, negative = inhibition) at 1uM” value was -8.51%. For O=C(CCn1cccn1)N1CCCC(N2CCN(c3cccc(C(F)(F)F)c3)CC2)C1 (stereo not drawn), the “hERG current change (%, negative = inhibition) at 1uM” value was -1.1%. For Cn1c(CCNC(=O)C(C)(C)C)nc2ccccc21, the “hERG current change (%, negative = inhibition) at 1uM” value was 13.8%. COc1ccccc1NC(=S)NC(=O)c1ccc(-c2ccc(Cl)cc2)o1 was tested, and the “hERG current change (%, negative = inhibition) at 1uM” value was 2.74%. In the case of O=C(COC(=O)Cc1ccccc1)NC12CC3CC(CC(C3)C1)C2, the “hERG current change (%, negative = inhibition) at 1uM” value is reported as 9.33%. With COc1ccccc1CNC(=O)c1nnc(Cc2ccc(Cl)cc2)o1 the “hERG current change (%, negative = inhibition) at 1uM” value was 13.8%. With C/C=C(\C)C(=O)Nc1cccc(C2=NOC3(C2)C[C@@H](C(N)=O)N(C(=O)c2ccccc2C(=O)c2ccccc2)C3)c1 (stereo partly drawn) the “hERG current change (%, negative = inhibition) at 1uM” value was 10.8%. For Cn1nc([N+](=O)[O-])nc1Sc1nnnn1-c1ccc(C(=O)O)cc1, the “hERG current change (%, negative = inhibition) at 1uM” value was 8.97%. With Cn1c(=O)cc(SCC(=O)NCCCN2CCN(c3ccccc3F)CC2)c2ccccc21 the “hERG current change (%, negative = inhibition) at 1uM” value was -6.98%. In the case of O=C(Nc1cccc(Cl)c1)Nc1csc([N+](=O)[O-])c1, the “hERG current change (%, negative = inhibition) at 1uM” value is reported as 13.6%. O=C(CCC1CCCCC1)Nc1ncn[nH]1 was tested, and the “hERG current change (%, negative = inhibition) at 1uM” value was 5.8%. In the case of CCCSc1nnc(NC(=O)c2nc(SC)ncc2Cl)s1, the “hERG current change (%, negative = inhibition) at 1uM” value is reported as -6.11%. C[C@@H](NC(=O)[C@@H]1Cc2ccccc2CN1)C(=O)NC1CCCCC1 was tested, and the “hERG current change (%, negative = inhibition) at 1uM” value was 12.5%. For C=CCn1c(N)c(C(=O)OCCC)c2nc3ccccc3nc21, the “hERG current change (%, negative = inhibition) at 1uM” value was -18%. For CCOC(=O)C1=C(C)NC(=S)NC1c1ccco1 (stereo not drawn), the “hERG current change (%, negative = inhibition) at 1uM” value was 13.7%. With O=C(NC1CCCCC1)c1ccc(CNc2ccccc2)o1 the “hERG current change (%, negative = inhibition) at 1uM” value was 8.74%. For CCOC(=O)c1c(C)[nH]c(C)c1S(=O)(=O)N1CCCCC1, the “hERG current change (%, negative = inhibition) at 1uM” value was 17.5%. With O=C(CN1C(=O)S/C(=C\c2ccc(F)cc2)C1=O)NCCCn1ccnc1 the “hERG current change (%, negative = inhibition) at 1uM” value was -6.45%. With CC(C)(C)c1ccc(/C=C/C(=O)c2ccc(NC3=NCCCS3)cc2)cc1 the “hERG current change (%, negative = inhibition) at 1uM” value was -4.53%. O=C(CNC(=O)c1ccccc1)OCc1nnc(-c2ccccc2)o1 was tested, and the “hERG current change (%, negative = inhibition) at 1uM” value was 17.4%. With O=C1CCN(Cc2ccccc2)CCN1[C@H](CSc1ccccc1)Cc1ccccc1 the “hERG current change (%, negative = inhibition) at 1uM” value was -39.1%. In the case of CCOC(=O)N1CCN(C(=O)COCc2cc(-c3ccc4c(c3)OCO4)on2)CC1, the “hERG current change (%, negative = inhibition) at 1uM” value is reported as -0.101%. O=C(Cn1cc(S(=O)(=O)Cc2cccc([N+](=O)[O-])c2)c2ccccc21)N1CCOCC1 was tested, and the “hERG current change (%, negative = inhibition) at 1uM” value was 12.2%. In the case of Cc1ccccc1NC(=O)/C(C#N)=C\c1ccsc1, the “hERG current change (%, negative = inhibition) at 1uM” value is reported as 8.01%. In the case of CCN(CCCNC(=O)CCn1c(=O)[nH]c2ccccc2c1=O)c1cccc(C)c1, the “hERG current change (%, negative = inhibition) at 1uM” value is reported as 5.59%. Cc1ccc2[nH]c(CCN(C)C)c(CC#N)c2c1 was tested, and the “hERG current change (%, negative = inhibition) at 1uM” value was -23.7%. With CCCCNC(=O)c1ccc(NC(=O)CC2SC(N3CCCC3)=NC2=O)cc1 (stereo not drawn) the “hERG current change (%, negative = inhibition) at 1uM” value was 18.3%. In the case of Cc1noc(NS(=O)(=O)c2ccc(NC(=O)CSc3n[nH]c(-c4ccccc4)n3)cc2)c1C, the “hERG current change (%, negative = inhibition) at 1uM” value is reported as 12.6%. In the case of COc1ccc(CCNC(=O)C2CCN(S(=O)(=O)c3cccc4cccnc34)CC2)cc1OC, the “hERG current change (%, negative = inhibition) at 1uM” value is reported as 22.1%. Nc1nnc(N2CCc3ccccc32)s1 was tested, and the “hERG current change (%, negative = inhibition) at 1uM” value was 12.8%. With CC1CCc2nc(N)c(C#N)c(-c3cccnc3)c2C1 (stereo not drawn) the “hERG current change (%, negative = inhibition) at 1uM” value was -2.94%. In the case of O=C(COC(=O)/C=C/c1cccs1)NC(=O)Cc1ccccc1, the “hERG current change (%, negative = inhibition) at 1uM” value is reported as 7.91%. In the case of COc1ccc(NC(=O)c2cc3cc(C)ccc3n2C)c(OC)c1, the “hERG current change (%, negative = inhibition) at 1uM” value is reported as 10.7%. COc1ccc(N(CC(=O)NC2CCCC2)C(=O)CCC(=O)Nc2cc(C)on2)cc1 was tested, and the “hERG current change (%, negative = inhibition) at 1uM” value was 10%. For Cc1cccc(NC(=O)c2sc3nc4c(c(-c5ccco5)c3c2N)CCC4)c1, the “hERG current change (%, negative = inhibition) at 1uM” value was 5.23%.
